Test results from the supplement of paper PMC7826260.
The list shows a part of the results. The data describe in vitro nicking of single-stranded DNA by Rep domains at 3 µM enzyme and 37 °C for 1 h; the strands have 90 letters, of which the middle is given. A value is the log2 ratio of uncut reads to the pool without enzyme; uncut sequences lie near 0, cut ones below; no hit call is given. The scaling is to total reads; where an enzyme cuts many sequences, the uncut ones exceed 0.

Key:
Assay in all cases: uncleaved DNA left, log2 of reads against the no-enzyme library (log2 ratio); higher = less cleavage (more negative = more Rep cleavage of the k-mer); sequences stand for … in CTCGTCCG…ACCGGAGA
[1] = tested on: T1, Rep nickase domain of Muscovy duck circovirus
T1 sequence (protein, residues 1-111, tag omitted): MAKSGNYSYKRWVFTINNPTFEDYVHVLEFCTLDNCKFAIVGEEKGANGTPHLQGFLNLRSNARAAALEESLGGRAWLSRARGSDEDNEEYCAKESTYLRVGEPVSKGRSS
Procedure: (§1)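 A pool of 90-nt single-stranded DNAs with seven random bases just before the constant AC of the nick site (name = the seven bases) was cut by 3 µM recombinant His6-SUMO-tagged Rep nickase domain (300 nM DNA, 50 mM HEPES pH 8.0, 50 mM NaCl, 1 mM MnCl2, 1 h, 37 °C, three replicates). Uncut DNA was amplified and sequenced.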

[2] = tested on: T2, Rep nickase domain of banana bunchy top virus
T2 sequence (protein, residues 1-94, tag omitted): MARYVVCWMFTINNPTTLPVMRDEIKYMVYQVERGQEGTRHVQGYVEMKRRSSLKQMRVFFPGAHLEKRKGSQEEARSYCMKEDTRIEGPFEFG
Procedure: as §1

[3] = tested on: T3, Rep nickase domain of cabbage leaf curl virus
T3 sequence (protein, residues 1-116, tag omitted): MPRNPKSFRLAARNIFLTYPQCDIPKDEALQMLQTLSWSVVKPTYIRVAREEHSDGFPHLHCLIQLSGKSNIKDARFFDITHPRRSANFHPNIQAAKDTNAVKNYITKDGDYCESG
Procedure: as §1

[4] = tested on: T4, Rep nickase domain of chickpea chlorotic dwarf virus
T4 sequence (protein, residues 1-124, tag omitted): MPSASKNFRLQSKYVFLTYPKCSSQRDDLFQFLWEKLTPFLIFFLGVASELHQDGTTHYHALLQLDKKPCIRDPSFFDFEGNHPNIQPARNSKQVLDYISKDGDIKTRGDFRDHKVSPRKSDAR
Procedure: as §1

[5] = tested on: T5, Rep nickase domain of faba bean necrotic yellows virus
T5 sequence (protein, residues 1-98, tag omitted): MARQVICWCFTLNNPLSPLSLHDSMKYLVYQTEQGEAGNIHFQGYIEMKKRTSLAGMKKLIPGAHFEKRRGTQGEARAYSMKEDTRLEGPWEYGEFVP
Procedure: as §1

[6] = tested on: T6, Rep nickase domain of maize striate mosaic virus
T6 sequence (protein, residues 1-117, tag omitted): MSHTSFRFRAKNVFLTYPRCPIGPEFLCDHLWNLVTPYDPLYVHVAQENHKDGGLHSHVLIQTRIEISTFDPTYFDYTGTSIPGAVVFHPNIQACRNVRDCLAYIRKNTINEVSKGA
Procedure: as §1

[7] = tested on: T7, Rep nickase domain of porcine circovirus 2
T7 sequence (protein, residues 2-116, tag omitted): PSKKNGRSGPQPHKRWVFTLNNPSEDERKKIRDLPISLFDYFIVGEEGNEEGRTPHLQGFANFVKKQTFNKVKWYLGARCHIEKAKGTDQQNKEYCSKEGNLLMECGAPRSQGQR
Procedure: as §1

[8] = tested on: T8, Rep nickase domain of tomato yellow leaf curl virus
T8 sequence (protein, residues 1-136, tag omitted): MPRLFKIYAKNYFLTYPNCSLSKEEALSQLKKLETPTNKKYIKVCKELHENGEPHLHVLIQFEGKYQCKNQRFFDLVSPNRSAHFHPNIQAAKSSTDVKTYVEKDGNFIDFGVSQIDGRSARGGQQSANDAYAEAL
Procedure: as §1

[9] = tested on: T9, Rep nickase domain of wheat dwarf virus
T9 sequence (protein, residues 1-137, tag omitted): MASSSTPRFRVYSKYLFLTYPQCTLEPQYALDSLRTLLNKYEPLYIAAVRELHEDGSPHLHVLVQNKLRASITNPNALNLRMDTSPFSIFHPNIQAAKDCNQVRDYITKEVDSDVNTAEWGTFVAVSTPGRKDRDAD
Procedure: as §1

Row | Sequence | uncleaved DNA left (log2) [1] | uncleaved DNA left (log2) [2] | uncleaved DNA left (log2) [3] | uncleaved DNA left (log2) [4] | uncleaved DNA left (log2) [5] | uncleaved DNA left (log2) [6] | uncleaved DNA left (log2) [7] | uncleaved DNA left (log2) [8] | uncleaved DNA left (log2) [9]
1 | TTTAGCT | -0.0265 | -0.107 | -0.472 | -1.62 | -0.0442 | -1.15 | -0.163 | 0.0144 | -0.171
2 | CGTGACC | 0.0498 | -0.046 | 0.0513 | 0.531 | -0.0645 | 0.392 | 0.0312 | -0.172 | -0.0169
3 | TCGATGT | -0.0232 | -0.0812 | -0.0476 | 0.0501 | 0.0429 | 0.0745 | -0.108 | -0.13 | -0.035
4 | CATATTG | 0.164 | -0.00682 | -0.556 | -0.574 | 0.109 | -1.12 | 0.231 | -0.0625 | -0.076
5 | ATAAACG | 0.0241 | 0.0806 | -0.684 | 0.183 | 0.133 | -0.859 | 0.245 | 0.0661 | -0.0343
6 | TGTTAGT | -2.86 | -0.189 | -0.0172 | -0.489 | -0.04 | -0.615 | -3.13 | 0.0533 | -0.0161
7 | AAATGTG | 0.1 | 0.0621 | -0.732 | 0.0067 | 0.146 | -0.966 | 0.202 | 0.156 | 0.0769
8 | GGTATTA | 0.0511 | 0.137 | 0.47 | 1.09 | -0.111 | 1.84 | 0.117 | 0.149 | 0.123
9 | TCACGAC | 0.0916 | 0.0355 | 0.0843 | -0.0364 | 0.0364 | -0.316 | 0.14 | -0.0463 | -0.00772
10 | TACGCTA | -0.0768 | -0.118 | -0.385 | -2.56 | -0.0393 | -0.687 | -0.216 | -0.0532 | -0.133
11 | GGTCGCA | 0.0742 | 0.104 | 0.552 | 1.5 | 0.0466 | 1.75 | 0.0901 | 0.0235 | 0.096
12 | CCGTTAG | -0.074 | -0.281 | -0.863 | -0.485 | -0.0827 | -1.11 | -0.111 | -0.143 | -0.3
13 | AGGTTAC | 0.0273 | -0.0487 | -0.0203 | -0.786 | -0.113 | -0.087 | 0.0921 | -0.0855 | -0.0552
14 | CAGAAGC | 0.116 | 0.139 | -0.25 | -0.561 | 0.12 | -1.1 | 0.0715 | 0.157 | 0.0427
15 | GTTTACC | -0.0697 | -0.00255 | 0.369 | 1.07 | -0.0267 | 1.72 | -0.0905 | -0.057 | -0.0254
16 | CGTGAAA | 0.0399 | 0.12 | 0.191 | 0.468 | 0.071 | 0.352 | 0.0474 | 0.17 | 0.058
